The whole screen tested about 310,000 compounds, of which about 2,200 (0.71%) showed an effect of 50% or more. Effects have a minus sign here. The list shows a part of the results.

This assay deals with human ether-à-go-go-related gene (hERG) potassium channel (human, UniProt Q12809). The assay is described as follows: primary screen, population patch clamp on CHO cells stably expressing hERG.
Chain of human ether-à-go-go-related gene (hERG) potassium channel (Q12809 whole entry, looked up): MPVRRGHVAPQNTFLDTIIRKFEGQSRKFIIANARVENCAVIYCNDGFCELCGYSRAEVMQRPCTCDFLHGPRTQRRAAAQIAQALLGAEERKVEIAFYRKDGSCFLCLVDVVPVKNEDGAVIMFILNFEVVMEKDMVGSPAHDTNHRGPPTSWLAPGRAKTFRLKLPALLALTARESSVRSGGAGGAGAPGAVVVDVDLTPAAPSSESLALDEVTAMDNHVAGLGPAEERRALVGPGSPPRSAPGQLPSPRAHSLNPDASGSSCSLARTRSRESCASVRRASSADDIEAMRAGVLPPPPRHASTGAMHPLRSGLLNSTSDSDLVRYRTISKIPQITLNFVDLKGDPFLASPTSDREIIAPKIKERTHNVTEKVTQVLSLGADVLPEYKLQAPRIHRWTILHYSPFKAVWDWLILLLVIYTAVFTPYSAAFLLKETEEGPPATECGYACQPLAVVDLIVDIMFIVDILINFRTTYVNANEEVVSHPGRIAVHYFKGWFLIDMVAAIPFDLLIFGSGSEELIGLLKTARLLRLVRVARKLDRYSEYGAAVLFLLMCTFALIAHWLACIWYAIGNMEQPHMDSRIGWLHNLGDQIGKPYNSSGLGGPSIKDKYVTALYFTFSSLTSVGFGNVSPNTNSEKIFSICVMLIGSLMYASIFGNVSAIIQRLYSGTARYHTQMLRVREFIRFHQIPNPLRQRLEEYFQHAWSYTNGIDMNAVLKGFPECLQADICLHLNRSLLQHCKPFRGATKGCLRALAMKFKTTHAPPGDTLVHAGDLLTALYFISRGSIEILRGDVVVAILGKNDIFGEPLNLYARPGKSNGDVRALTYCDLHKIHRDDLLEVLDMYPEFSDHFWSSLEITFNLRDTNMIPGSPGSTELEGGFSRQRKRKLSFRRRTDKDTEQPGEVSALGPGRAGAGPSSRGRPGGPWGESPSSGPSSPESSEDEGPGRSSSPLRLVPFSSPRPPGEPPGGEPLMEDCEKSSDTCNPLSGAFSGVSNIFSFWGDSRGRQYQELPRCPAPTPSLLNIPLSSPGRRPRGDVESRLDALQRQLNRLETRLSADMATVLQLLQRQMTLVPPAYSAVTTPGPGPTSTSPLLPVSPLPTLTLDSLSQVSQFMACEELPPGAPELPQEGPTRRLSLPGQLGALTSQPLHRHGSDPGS
In the case of `Cc1cc(=O)oc2cc(NC(=O)c3ccccc3OC(F)F)ccc12`, the “hERG current change (%, negative = inhibition) at 1uM” value is 14.6%.

For `CN(C)CCNC(=O)Cn1nc(C(F)F)cc1C1CC1`, the “hERG current change (%, negative = inhibition) at 1uM” value is listed as 2.48%. Turning to `CN1CCC(OC(=O)c2cc3cc(Cl)cc(Cl)c3oc2=O)CC1`, the “hERG current change (%, negative = inhibition) at 1uM” value is 7.84%. For the compound `CC[N+](CC)(CC)CC(=O)Nc1c(C)cccc1C.[Br-]`, the “hERG current change (%, negative = inhibition) at 1uM” value is on record as 20.3%. Consider `COCCSc1ccccc1C(=O)Nc1ccc(Cl)cc1`, for which the “hERG current change (%, negative = inhibition) at 1uM” value is given as 7.92%. The value for `[O-]/C(=C(\C(=S)Nc1ccc(SC(F)F)cc1)[n+]1ccccc1)c1cc(Cl)ccc1Cl` was -5.78%; that for `CCOC(=O)C1=C(c2ccccc2)Nc2ncnn2C1c1cc(OC)ccc1OC` (stereo not drawn) was -7.08%; that for `CC(=O)Nc1ccc(NC(=O)C(C)Sc2nc3nc(C)cc(C)n3n2)cc1` (stereo not drawn) was 9.36%. As for `O=C(NC1CCS(=O)(=O)C1)C1C2CC3CC(C2)CC1C3` (stereo not drawn), the “hERG current change (%, negative = inhibition) at 1uM” value worked out at 12.2%.

On to `CN(C(=O)COc1ccccc1)c1nnc(-c2ccncc2)s1`, for which the “hERG current change (%, negative = inhibition) at 1uM” value stood at 7.45%.

Regarding `COc1ccc(C(=O)N(CC2CCCO2)C(C(=O)NCCC(C)C)c2ccc(C)cc2)cc1OC` (stereo not drawn), the “hERG current change (%, negative = inhibition) at 1uM” value is on record as 6.63%. Turning to `COc1ccc(NC(=O)CSCC(=O)N(C)CC(=O)Nc2c(C)cccc2C)cc1`, the “hERG current change (%, negative = inhibition) at 1uM” value was 7.49%.

Turning to `Cc1ccc(S(=O)(=O)c2cc3c(=O)n4cccc(C)c4nc3n(Cc3ccncc3)c2=N)cc1`, the “hERG current change (%, negative = inhibition) at 1uM” value was 9.03%.

With `CCCCOc1ccc(C(C)(O)CCN2CCOCC2)cc1` (stereo not drawn), the “hERG current change (%, negative = inhibition) at 1uM” value was 2.6%. Regarding `CC(C)(C(=O)c1ccccc1)/[N+]([O-])=C/c1ccc(Br)cc1`, the “hERG current change (%, negative = inhibition) at 1uM” value is 13.5%. As to `COc1ccc(S(=O)(=O)NCC(=O)N(CC(=O)NCC2CCCO2)c2cc(C)ccc2C)cc1` (stereo not drawn), the “hERG current change (%, negative = inhibition) at 1uM” value is 11.1%. On to `CC1CCCN(C(=O)c2ccncc2)C1` (stereo not drawn), for which the “hERG current change (%, negative = inhibition) at 1uM” value came to 4.85%. To `CC(CC(=O)Nc1ccccc1C(F)(F)F)c1ccccc1` (stereo not drawn) belongs 0.143%; to `Cc1cc(C)c(NC(=O)CNC(=O)CSc2nnc(N)s2)c(C)c1`, 11.2%.

As for `Cc1nn(Cc2ccc(F)cc2)c(C)c1NC(=O)c1cnn2cccnc12`, the “hERG current change (%, negative = inhibition) at 1uM” value amounted to 16%. Take `COCCNC(=O)CN(C(=O)CCC(=O)Nc1ccccn1)c1ccccc1F`: the “hERG current change (%, negative = inhibition) at 1uM” value amounted to 14.6%. For the compound `C=CCNc1nc(Cl)ncc1F`, the “hERG current change (%, negative = inhibition) at 1uM” value was 2.31%. For the compound `CSc1ccccc1-c1nnc(-c2ccc(Cl)cc2Cl)o1`, the “hERG current change (%, negative = inhibition) at 1uM” value is reported as 10.1%. As to `Cn1cc(C(C[N+](=O)[O-])c2ccccc2)c2ccccc21` (stereo not drawn), the “hERG current change (%, negative = inhibition) at 1uM” value is recorded as 10.1%. To `COC(=O)c1ccc(COC(=O)c2ccc(CO)cc2)o1` belongs 13.2%; to `CC1CCCCN1S(=O)(=O)c1ccc(C(=O)Nc2nnc(-c3ccccc3Cl)o2)cc1` (stereo not drawn), 5.52%; to `O=C(N/C(=C/c1ccc(Cl)cc1)C(=O)N1CCCC1)c1ccccc1`, 2.73%. In the case of `O=C(COC(=O)c1ccc2c(c1)C(=O)N(c1cccc3ncccc13)C2=O)c1ccc(Cl)cc1`, the “hERG current change (%, negative = inhibition) at 1uM” value amounted to 11.8%. On to `COc1ccc(C(NC=O)c2cc(OC)c(OC)cc2Br)cc1OC` (stereo not drawn), for which the “hERG current change (%, negative = inhibition) at 1uM” value was 11%. Consider `Cc1c(C)n2c(SCC(=O)N3CC(C)OC(C)C3)nnc2[nH]c1=O` (stereo not drawn), for which the “hERG current change (%, negative = inhibition) at 1uM” value is recorded as 14.2%. Regarding `O=C1ON=C(c2ccccc2)/C1=C/c1ccc(O)cc1`, the “hERG current change (%, negative = inhibition) at 1uM” value is given as 16.5%. With `CCCCCCNC(=O)c1ccc(Br)o1`, the “hERG current change (%, negative = inhibition) at 1uM” value amounted to 5.22%. To `CCn1c(=O)c2c(nc3n2CCCN3c2cccc(C)c2)n(C)c1=O` belongs 3.78%; to `Cc1ccccc1OCC(=O)NNC(=O)CN1C(=O)c2ccccc2C1=O`, 5.8%. To `COCCN(C(=O)Nc1ccccc1OC)c1nc2ccccc2s1` belongs 16.2%; to `Cl.NC(=O)c1c(NC(=O)c2c(F)cccc2F)sc2c1CCN(Cc1ccccc1)C2`, -8.58%; to `CCCCC(CC)CNC(=O)c1ncn[nH]1` (stereo not drawn), 5.25%. With `CC(C)CCNC(=O)C(=O)Nc1cc2c3c(c1)CC(=O)N3CCC2`, the “hERG current change (%, negative = inhibition) at 1uM” value came out at 2.41%.

Turning to `CCC(C)C(=O)Nc1ccc(OC)cc1[N+](=O)[O-]` (stereo not drawn), the “hERG current change (%, negative = inhibition) at 1uM” value turned out to be 13.6%. As for `Cc1ccc(CN(C)CC(=O)Nc2cccc([N+](=O)[O-])c2)o1`, the “hERG current change (%, negative = inhibition) at 1uM” value is -4.14%. In the case of `O=c1c2ccccc2nc(Cc2ccccc2)n1-c1ccc(O)cc1`, the “hERG current change (%, negative = inhibition) at 1uM” value is 4.55%. As for `COC(=O)c1cn(NC(=O)Cc2cccc(C(F)(F)F)c2)c(=O)c2ccccc12`, the “hERG current change (%, negative = inhibition) at 1uM” value amounted to 0.457%. In the case of `CC(C)Cn1c(SCC(=O)NC2CCCc3ccccc32)nc(O)cc1=O` (stereo not drawn), the “hERG current change (%, negative = inhibition) at 1uM” value is 19.2%. For the compound `Cc1nc2scc(-c3cccs3)c2c(=O)[nH]1`, the “hERG current change (%, negative = inhibition) at 1uM” value is reported as 11.8%.

Turning to `CCOC(=O)c1c(-c2ccc(F)cc2)csc1NC(=O)CCN1C(=O)c2ccccc2C1=O`, the “hERG current change (%, negative = inhibition) at 1uM” value was found to be 7.07%. In the case of `Cn1cccc1C1NC(=O)c2c(sc3c2CCC(C(C)(C)C)C3)N1` (stereo not drawn), the “hERG current change (%, negative = inhibition) at 1uM” value came out at 10.1%.

Consider `CC(C)NC(=O)CC(=O)N/N=C/c1c(F)cccc1Cl`, for which the “hERG current change (%, negative = inhibition) at 1uM” value came to 1.37%. Take `COC(=O)c1cc(C(=O)OC)cc(N2C(=O)CC(NNC(=O)c3ccc(C)cc3)C2=O)c1` (stereo not drawn): the “hERG current change (%, negative = inhibition) at 1uM” value is on record as 11.6%. The value for `CC1CN(c2nc3ccccc3nc2C(C#N)C(=O)OC2CCCCC2)CC(C)O1` (stereo not drawn) was 9.53%; that for `O=C(CN1C(=O)C2C3C=CC(C3)C2C1=O)OCC(=O)c1ccc(Br)cc1` (stereo not drawn) was 9.83%.

For `CCCCCCCCCCOC(=O)Cn1c(COc2ccccc2C)[n+](C)c2ccccc21.[Cl-]`, the “hERG current change (%, negative = inhibition) at 1uM” value is given as -18%.

As to `Cn1c(=NC(=O)c2cccc([N+](=O)[O-])c2)sc2ccccc21`, the “hERG current change (%, negative = inhibition) at 1uM” value is given as 1.11%. `Cc1cnc(NC(=O)CCN2C(=O)C3CCCCC3C2=O)s1` (stereo not drawn): the “hERG current change (%, negative = inhibition) at 1uM” value worked out at 12.3%. On to `CCC(Oc1ccccc1)C(=O)Nc1ccc(S(=O)(=O)Nc2ncccn2)cc1` (stereo not drawn), for which the “hERG current change (%, negative = inhibition) at 1uM” value amounted to 15%. As to `O=C(c1cccc(F)c1)N1CCCC(C(=O)N2CCN(c3ccccc3)CC2)C1` (stereo not drawn), the “hERG current change (%, negative = inhibition) at 1uM” value stood at 11.2%. `O=C(CSc1nnc(NC(=O)c2ccco2)s1)Nc1ccc(F)cc1`: the “hERG current change (%, negative = inhibition) at 1uM” value amounted to 16.2%. For the compound `O=C(CSc1n[nH]c(-c2cccnc2)n1)Nc1ccccc1`, the “hERG current change (%, negative = inhibition) at 1uM” value was determined as 5.77%.

The values are drawn from paper PMC4336329 (PLoS ONE, 2015).
